# Results taken from PMC7819943, “Rice protein-binding microarrays: a tool to detect cis-acting elements near promoter regions in rice”.
# This is one part of the list.
# Molecular target: T1, OsWOX13 (Oryza sativa, UniProt Q5QMM3 1-267)
# T1 sequence: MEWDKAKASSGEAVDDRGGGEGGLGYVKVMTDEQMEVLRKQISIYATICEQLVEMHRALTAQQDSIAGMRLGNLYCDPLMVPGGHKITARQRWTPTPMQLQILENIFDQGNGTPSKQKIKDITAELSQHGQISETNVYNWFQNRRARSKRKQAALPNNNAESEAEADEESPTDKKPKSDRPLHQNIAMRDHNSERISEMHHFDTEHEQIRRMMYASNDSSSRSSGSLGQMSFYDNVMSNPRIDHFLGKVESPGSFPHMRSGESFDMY
# Experiment: protein-binding microarray (RPBM); PBS, 2% BSA, 51.3 ng/ul salmon testes DNA, 50 uM zinc acetate, 200 nM TF, 25 C, 1 h; high values mean tight binding
# Details: protein: recombinant; tags: N-terminal polyhistidine and DsRed monomer fusion (pET32a); label: CyDye5-dUTP incorporated in the synthesized complementary strand; 3' TTTTT single-stranded linker to array surface; dsDNA, one strand shown
# Procedure, shortened: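 Binding signal here means per-feature fluorescence intensity in arbitrary units. The values were read on an Axon 4000B scanner after a custom Agilent array, double-stranded by primer extension with Cy5-dUTP, was incubated with 200 nM protein at 25 °C for 1 h in PBS with 2% BSA, salmon testes DNA and 50 µM zinc acetate, then washed. The proteins were transcription factors with an N-terminal polyhistidine tag and DsRed, expressed in E. coli BL21-CodonPlus and purified on Ni–NTA.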
row,Sequence,binding signal
1,CATTGGACTGCATATTAATTTGAGTATTCTGTTTCTCATTCGGAGTCACCTAGTGCAG,4630 fluorescence intensity (a.u.)
2,TGGAGATGAATGATTAGAGCCAAGTGAATGGTCCAAGCACCGGAGTCACCTAGTGCAG,12400 fluorescence intensity (a.u.)
3,CTTGTAATTTCTCTGGGTTGATAATATTTAGAGCACGGTCCGGAGTCACCTAGTGCAG,3880 fluorescence intensity (a.u.)
4,ACACTAATTATAAATACTAAACGTAGACTATTAATAAAACCGGAGTCACCTAGTGCAG,9360 fluorescence intensity (a.u.)
5,AATGCAATTGGATTAGGGGCAATTAACGTTAACCTCTGCCCGGAGTCACCTAGTGCAG,11400 fluorescence intensity (a.u.)
6,AGGATTAATTACGCTTAATAAATTTTCTGGCAATTTATAGCGGAGTCACCTAGTGCAG,51700 fluorescence intensity (a.u.)
7,CTCTGATAGTTTATAAAACTATATAAGAGATATGTACATTCGGAGTCACCTAGTGCAG,3370 fluorescence intensity (a.u.)
8,CAAATTTAAATTTTAACAAGAACTATATAAGCTAGAGGTCCGGAGTCACCTAGTGCAG,25300 fluorescence intensity (a.u.)
9,ATAATTTGCTACTCACCAAATAATTTGAGCACCTCTGCACCGGAGTCACCTAGTGCAG,12100 fluorescence intensity (a.u.)
10,GATAATTATTTATATAGATGTATTAAATATTATATATTTTCGGAGTCACCTAGTGCAG,14300 fluorescence intensity (a.u.)
11,CTGACTTATACTCATCAATCGTCCTCCTCGATTGCTCCTCCGGAGTCACCTAGTGCAG,6160 fluorescence intensity (a.u.)
12,GTTTGATTAAACTATATAAAATTTGAATTTTAAAATACAACGGAGTCACCTAGTGCAG,9960 fluorescence intensity (a.u.)
13,GGTTCAGATTGATTTCTACTACCAGTAAGGTGAGGCTCTACGGAGTCACCTAGTGCAG,33900 fluorescence intensity (a.u.)
14,TAACAAAATTATTATAAAACTACAACATTTTATAATTTGGCGGAGTCACCTAGTGCAG,3190 fluorescence intensity (a.u.)
15,TCTCCAGAATTAGATTAAATTTCATAAAACTCCACCTGATCGGAGTCACCTAGTGCAG,8480 fluorescence intensity (a.u.)
16,ATTTACGTAAATTATATTATTTTGTTATGAGTTATTTTATCGGAGTCACCTAGTGCAG,5900 fluorescence intensity (a.u.)
17,CTCAAATTATTGTTAAACCTTCATATAAATCGACCCCAATCGGAGTCACCTAGTGCAG,7650 fluorescence intensity (a.u.)
18,ACTAAATCTCTCTAGTTATCCAATCACCACAAAGTAAAGACGGAGTCACCTAGTGCAG,5060 fluorescence intensity (a.u.)
19,TTTTAATCAAACTTATTTAAGTTTGGTCAAACTTATAGATCGGAGTCACCTAGTGCAG,3910 fluorescence intensity (a.u.)
20,TCTTCTCTATCAGTGATTTGGAATATCTACAGATAGAAAACGGAGTCACCTAGTGCAG,3260 fluorescence intensity (a.u.)
21,ATCAGCTAAAATTTAAATTTTCAACCTTAAATATTTGATTCGGAGTCACCTAGTGCAG,5360 fluorescence intensity (a.u.)

row,Sequence,binding signal
1,GAAGGAGATTAGATTAGATTAGCGACGAATTCGTCAAACCCGGAGTCACCTAGTGCAG,12400 fluorescence intensity (a.u.)
2,ATTCAATTTCCCATTTTCTTGCTGGTCACATCACAAACACCGGAGTCACCTAGTGCAG,4560 fluorescence intensity (a.u.)
3,AAATTAAATGCCTTTATAATTACTGCCCTCCGATTCAAACCGGAGTCACCTAGTGCAG,8500 fluorescence intensity (a.u.)
4,CATATCCCATTTGCCAATCACACCCTGAGAGTATGTATATCGGAGTCACCTAGTGCAG,6560 fluorescence intensity (a.u.)
5,AATAATTCTAGATTACTAGCACTGCTTTGTTCTATTTGATCGGAGTCACCTAGTGCAG,5920 fluorescence intensity (a.u.)
6,CGTGCTTGATTTATGTAACTAAGGATAATAGGAGAAGAGGCGGAGTCACCTAGTGCAG,19500 fluorescence intensity (a.u.)
7,AATTGTAATTTGTAGTATATTCAGACAAACTAACCATTGGCGGAGTCACCTAGTGCAG,14800 fluorescence intensity (a.u.)
8,TTGTAATTTGGGCTCTCTAAAGTCTAAGCCATTTAAAAGGCGGAGTCACCTAGTGCAG,3510 fluorescence intensity (a.u.)
9,GTTTTAGCTAATATTTAATTAATCATGTGCTAATGAGCTACGGAGTCACCTAGTGCAG,8590 fluorescence intensity (a.u.)
10,TATAATTAGTATATGCTTACATGTTGAGCCTTGTGTGTTTCGGAGTCACCTAGTGCAG,26600 fluorescence intensity (a.u.)
11,TTTTCTCAATTATTTCAGGGTCACATAGTACCTCTCCATTCGGAGTCACCTAGTGCAG,3160 fluorescence intensity (a.u.)
12,TCTGTTGATGAATGGATTGATTGATGGATGGATGGATGGTCGGAGTCACCTAGTGCAG,64100 fluorescence intensity (a.u.)
13,ACCCTCCTCTCTCTCTCTCTCTCTCTCTATCCATCTCTTTCGGAGTCACCTAGTGCAG,3170 fluorescence intensity (a.u.)
14,CACTTGGGGAATTCCTGATTAGAACTCCATCATTATGACTCGGAGTCACCTAGTGCAG,5560 fluorescence intensity (a.u.)
15,TAATATCTAATTAATTATATACTAATGACTCGTTTAGTTTCGGAGTCACCTAGTGCAG,31300 fluorescence intensity (a.u.)
16,GAATACTGACAGTAAAGATGATTGCAGAATTAGCTCATAGCGGAGTCACCTAGTGCAG,19400 fluorescence intensity (a.u.)
17,CCTAATTAATCCATGATTAGTCATAAGTGTTACAATAATCCGGAGTCACCTAGTGCAG,55500 fluorescence intensity (a.u.)
18,TGTACATAATTGTTGGGCTTGCACTTCAGTTAGGCCTGTGCGGAGTCACCTAGTGCAG,7380 fluorescence intensity (a.u.)
19,GTTTGACAGTTAAAATCTAGATTAAAGCATCATGTGCATTCGGAGTCACCTAGTGCAG,11400 fluorescence intensity (a.u.)
20,CGGCCAGATTTGATTTTGTACCTCCCGGTGCTAGTACCTACGGAGTCACCTAGTGCAG,3740 fluorescence intensity (a.u.)
21,TTACAAAATCTTATCAAATTTGATTAAAATTTGAAAGGATCGGAGTCACCTAGTGCAG,10400 fluorescence intensity (a.u.)
